Reference: publication PMC4564177
These are yes or no findings as the source states them, for the method shown. In cells and extracts the contact can be indirect. Some binding calls cover weakened binding; strength is not graded here. Tags and fused reporters may be left off the sequences shown.

By UniProt entry, the sequences of proteins in these tests, tags left out. Where a name states a change or a piece, a line headed by the entry shows the natural chain unless it says otherwise. Chains listed by the source or under a name are the forms on record and can include a tag or linker. Residues count along the entry.
myc-GFP-CRHR1 (P35347, residues 24-415): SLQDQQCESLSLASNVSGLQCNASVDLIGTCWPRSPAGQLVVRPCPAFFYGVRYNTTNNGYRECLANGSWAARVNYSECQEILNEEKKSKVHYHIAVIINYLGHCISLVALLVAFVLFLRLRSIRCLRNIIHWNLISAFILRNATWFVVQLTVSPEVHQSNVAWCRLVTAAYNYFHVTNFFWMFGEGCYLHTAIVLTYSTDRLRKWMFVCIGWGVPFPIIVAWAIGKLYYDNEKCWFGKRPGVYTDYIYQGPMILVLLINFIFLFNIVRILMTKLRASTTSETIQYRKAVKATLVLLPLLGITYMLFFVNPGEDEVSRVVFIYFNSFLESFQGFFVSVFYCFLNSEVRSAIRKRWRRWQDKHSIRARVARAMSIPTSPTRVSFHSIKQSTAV
myc-GFP-CRHR1-STAVA (P35347, form named): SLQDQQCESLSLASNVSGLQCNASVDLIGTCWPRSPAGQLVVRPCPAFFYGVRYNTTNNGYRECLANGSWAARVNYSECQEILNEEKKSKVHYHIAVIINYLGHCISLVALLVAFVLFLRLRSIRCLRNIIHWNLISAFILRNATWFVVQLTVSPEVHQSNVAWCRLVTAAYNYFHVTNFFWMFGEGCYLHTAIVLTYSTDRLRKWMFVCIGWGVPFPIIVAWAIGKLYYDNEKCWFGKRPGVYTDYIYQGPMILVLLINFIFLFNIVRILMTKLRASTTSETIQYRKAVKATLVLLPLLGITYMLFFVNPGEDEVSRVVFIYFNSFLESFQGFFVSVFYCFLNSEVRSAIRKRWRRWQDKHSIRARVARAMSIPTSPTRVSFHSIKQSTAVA

Tests used:
[1] = molecular target: myc-GFP-CRHR1-STAVA (mouse) (UniProt P35347); test: co-IP; lysates of HEK293 cells transiently co-transfected; IP overnight at 4°C with anti-GFP, anti-myc, anti-HA or anti-flag and Protein G Dynabeads; washes with 500 mM NaCl, 0.1% SDS, 0.5% Triton X-100; immunoblot; for syntenin-1 under basal conditions and after CRH (100 nM) treatment
myc-GFP-CRHR1 (mouse) = myc-GFP-CRHR1 (mouse) (UniProt P35347); test: as above

B1: flag-SAP102 (protein, UniProt P70175 1-849)
chain: MHKHQHCCKCPECYEVTRLAALRRLEPPGYGDWQVPDPYGPSGGNGASSGYGGYSSQTLPSQAGATPTPRTKAKLIPTGRDVGPVPPKPVPGKSTPKLNGSGPGWWPECTCTNRDWYEQASPAPLLVNPEALEPSLSVNGSDGMFKYEEIVLERGNSGLGFSIAGGIDNPHVPDDPGIFITKIIPGGAAAMDGRLGVNDCVLRVNEVDVSEVVHSRAVEALKEAGPVVRLVVRRRQPPPETIMEVNLLKGPKGLGFSIAGGIGNQHIPGDNSIYITKIIEGGAAQKDGRLQIGDRLLAVNNTNLQDVRHEEAVASLKNTSDMVYLKVAKPGSIHLNDMYAPPDYASTFTALADNHISHNSSLGYLGAVESKVTYPAPPQVPPTRYSPIPRHMLAEEDFTREPRKIILHKGSTGLGFNIVGGEDGEGIFVSFILAGGPADLSGELRRGDRILSVNGVNLRNATHEQAAAALKRAGQSVTIVAQYRPEEYSRFESKIHDLREQMMNSSMSSGSGSLRTSEKRSLYVRALFDYDRTRDSCLPSQGLSFSYGDILHVINASDDEWWQARLVTPHGESEQIGVIPSKKRVEKKERARLKTVKFHARTGMIESNRDFPGLSDDYYGAKNLKGVTSNTSDSESSSKGQEDAILSYEPVTRQEIHYARPVIILGPMKDRVNDDLISEFPHKFGSCVPHTTRPRRDNEVDGQDYHFVVSREQMEKDIQDNKFIEAGQFNDNLYGTSIQSVRAVAERGKHCILDVSGNAIKRLQQAQLYPIAIFIKPKSIEALMEMNRRQTYEQANKIFDKAMKLEQEFGEYFTAIVQGDSLEEIYNKIKQIIEDQSGHYIWVPSPEKL
Q: Which binding [1] does the source give for B1 here?
A: no binding

Q: What about the binding (myc-GFP-CRHR1 (mouse)) of the same binder?
A: binds

B2: flag-SAP102 PDZ3 (aa 394–849) (domain or fragment, UniProt P70175 394-849)
chain: AEEDFTREPRKIILHKGSTGLGFNIVGGEDGEGIFVSFILAGGPADLSGELRRGDRILSVNGVNLRNATHEQAAAALKRAGQSVTIVAQYRPEEYSRFESKIHDLREQMMNSSMSSGSGSLRTSEKRSLYVRALFDYDRTRDSCLPSQGLSFSYGDILHVINASDDEWWQARLVTPHGESEQIGVIPSKKRVEKKERARLKTVKFHARTGMIESNRDFPGLSDDYYGAKNLKGVTSNTSDSESSSKGQEDAILSYEPVTRQEIHYARPVIILGPMKDRVNDDLISEFPHKFGSCVPHTTRPRRDNEVDGQDYHFVVSREQMEKDIQDNKFIEAGQFNDNLYGTSIQSVRAVAERGKHCILDVSGNAIKRLQQAQLYPIAIFIKPKSIEALMEMNRRQTYEQANKIFDKAMKLEQEFGEYFTAIVQGDSLEEIYNKIKQIIEDQSGHYIWVPSPEKL
Q: How did the binding (myc-GFP-CRHR1 (mouse)) turn out when B2 was run?
A: no binding
